The values that follow come from the BET-seq Pho4 binding data (Le et al. 2018).

The list shows a part of the results. The energies were worked out here from pooled read counts, against the library average; single values are noisy.

For the experiment, the target named is T1, Pho4 (S. cerevisiae) (UniProt P07270).
T1 sequence: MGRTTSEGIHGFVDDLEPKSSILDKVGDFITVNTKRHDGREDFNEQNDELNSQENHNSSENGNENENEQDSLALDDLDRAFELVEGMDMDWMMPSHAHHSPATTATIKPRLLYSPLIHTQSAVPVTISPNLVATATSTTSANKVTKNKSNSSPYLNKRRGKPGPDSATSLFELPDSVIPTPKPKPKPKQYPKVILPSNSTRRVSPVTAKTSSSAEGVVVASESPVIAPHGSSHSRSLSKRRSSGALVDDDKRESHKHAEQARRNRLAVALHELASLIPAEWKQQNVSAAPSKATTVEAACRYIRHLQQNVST
The experiment in a line: relative binding free energy (BET-seq); higher = weaker binding. The settings on record: reference: library average.
On to CTTGTCACGTGCGATG, for which the “relative binding free energy” value came out at 0.15 kcal/mol.

Regarding TAGGTCACGTGAGATG, the “relative binding free energy” value was 0.28 kcal/mol.

With AATGACACGTGTCGGT, the “relative binding free energy” value was 0.04 kcal/mol.

As to TCAGTCACGTGTATGG, the “relative binding free energy” value is 0.14 kcal/mol.

On to TGTATCACGTGTTTGC, for which the “relative binding free energy” value amounted to 0.09 kcal/mol.

For the sequence AGGGGCACGTGTCGGA, the “relative binding free energy” value is -0.21 kcal/mol.

Regarding AACGGCACGTGGTATG, the “relative binding free energy” value was -0.08 kcal/mol.

Consider ATGAGCACGTGATATT, for which the “relative binding free energy” value was -0.08 kcal/mol.

As to TAATTCACGTGACGGT, the “relative binding free energy” value came out at 0.31 kcal/mol.

Regarding TAAGGCACGTGGTTAT, the “relative binding free energy” value is -0.11 kcal/mol.

As to ACAGGCACGTGGCGGG, the “relative binding free energy” value was -0.27 kcal/mol.

With TTGTGCACGTGGCAGT, the “relative binding free energy” value was -0.01 kcal/mol.

On to TGTTGCACGTGTACTG, for which the “relative binding free energy” value was -0.04 kcal/mol.

ATTCTCACGTGTTTAG: the “relative binding free energy” value was 0.25 kcal/mol.

As to GGGGGCACGTGCCTTG, the “relative binding free energy” value was -0.25 kcal/mol.

For AGGGTCACGTGCGATA, the “relative binding free energy” value was 0.04 kcal/mol.

As to TGGATCACGTGGGCCT, the “relative binding free energy” value was 0.02 kcal/mol.

For GTGCTCACGTGGTGAC, the “relative binding free energy” value is 0.26 kcal/mol.

Regarding TATGGCACGTGCTGGT, the “relative binding free energy” value was -0.15 kcal/mol.

For CGGGACACGTGGGGTA, the “relative binding free energy” value was -0.28 kcal/mol.

As to TGATACACGTGGATAT, the “relative binding free energy” value was 0 kcal/mol.

Take TTGAGCACGTGAAGAT: the “relative binding free energy” value came out at 0.15 kcal/mol.

On to GTGCGCACGTGAATGT, for which the “relative binding free energy” value worked out at 0.31 kcal/mol.

For TGTCGCACGTGGTGTG, the “relative binding free energy” value was -0.02 kcal/mol.

As for TTTCTCACGTGTTGGC, the “relative binding free energy” value stood at 0.3 kcal/mol.

In the case of TGTAGCACGTGCGCTG, the “relative binding free energy” value was -0.13 kcal/mol.

TGTTACACGTGAGTAG: the “relative binding free energy” value stood at 0.31 kcal/mol.

Consider GGGTACACGTGGAGTC, for which the “relative binding free energy” value was 0.07 kcal/mol.

Consider TGCTGCACGTGGAGAT, for which the “relative binding free energy” value is 0.03 kcal/mol.

Regarding GTTTTCACGTGTAATG, the “relative binding free energy” value is 0.43 kcal/mol.

TAAATCACGTGGTTTC: the “relative binding free energy” value stood at 0.07 kcal/mol.

Consider GCGGTCACGTGGTGGT, for which the “relative binding free energy” value turned out to be 0.11 kcal/mol.

With TGGTGCACGTGCAGTG, the “relative binding free energy” value was -0.02 kcal/mol.

Turning to GTGACCACGTGGGTTG, the “relative binding free energy” value is -0.26 kcal/mol.

For TGTATCACGTGAGATT, the “relative binding free energy” value was 0.25 kcal/mol.

Turning to GGCTGCACGTGATGGC, the “relative binding free energy” value was found to be 0.29 kcal/mol.

Take GCGATCACGTGTGTGG: the “relative binding free energy” value stood at 0.14 kcal/mol.

As for TAGTTCACGTGATGTG, the “relative binding free energy” value worked out at 0.3 kcal/mol.

Regarding GGTTACACGTGGCAGG, the “relative binding free energy” value is -0.06 kcal/mol.

In the case of CCTGTCACGTGGGGAG, the “relative binding free energy” value was -0.12 kcal/mol.

As to CCTGTCACGTGTGGTG, the “relative binding free energy” value worked out at 0.03 kcal/mol.

Take AGGGACACGTGTTGGG: the “relative binding free energy” value was 0.07 kcal/mol.

Consider TATGTCACGTGGCAAG, for which the “relative binding free energy” value was -0.01 kcal/mol.

With AAGGTCACGTGGTCAG, the “relative binding free energy” value worked out at 0.05 kcal/mol.

In the case of TGATACACGTGTTATA, the “relative binding free energy” value was determined as 0.01 kcal/mol.

For ATGAGCACGTGGTAAA, the “relative binding free energy” value amounted to 0 kcal/mol.

ATTGCCACGTGTGTAG: the “relative binding free energy” value is -0.06 kcal/mol.

For the sequence ACTTTCACGTGTGGGG, the “relative binding free energy” value amounted to 0.29 kcal/mol.

With TTTATCACGTGGATTA, the “relative binding free energy” value is 0.12 kcal/mol.

For AGATACACGTGCAGGT, the “relative binding free energy” value is 0.2 kcal/mol.

Consider TCGGTCACGTGTGTTT, for which the “relative binding free energy” value was 0.14 kcal/mol.

For TCAGACACGTGAGGGT, the “relative binding free energy” value is 0.27 kcal/mol.

In the case of AGGGCCACGTGTTTTA, the “relative binding free energy” value was -0.09 kcal/mol.

On to CGGAACACGTGGGTGG, for which the “relative binding free energy” value is -0.15 kcal/mol.

On to TGGAGCACGTGTTACG, for which the “relative binding free energy” value was -0.11 kcal/mol.

On to GTTTTCACGTGTTTCG, for which the “relative binding free energy” value was determined as 0.21 kcal/mol.

With AGTATCACGTGAGATG, the “relative binding free energy” value was 0.39 kcal/mol.

As for GGAGTCACGTGATATG, the “relative binding free energy” value came out at 0.41 kcal/mol.

Take TATATCACGTGACGGG: the “relative binding free energy” value was 0.24 kcal/mol.

In the case of TTTGCCACGTGTTCTT, the “relative binding free energy” value amounted to 0.06 kcal/mol.

Turning to TTGATCACGTGTGCTA, the “relative binding free energy” value stood at 0 kcal/mol.

On to TGGTGCACGTGATCGG, for which the “relative binding free energy” value is -0.08 kcal/mol.

As to TTGGACACGTGGAGTA, the “relative binding free energy” value is -0.17 kcal/mol.

In the case of AAGATCACGTGTGGGG, the “relative binding free energy” value worked out at 0.21 kcal/mol.

CGGGGCACGTGTCCGG: the “relative binding free energy” value was -0.16 kcal/mol.

As to GTAAACACGTGTTAGT, the “relative binding free energy” value was -0.05 kcal/mol.

With GAATTCACGTGGTTGG, the “relative binding free energy” value stood at 0.32 kcal/mol.

In the case of AGGCGCACGTGCGAGG, the “relative binding free energy” value is -0.17 kcal/mol.

On to TTAGTCACGTGAGGGT, for which the “relative binding free energy” value was determined as 0.29 kcal/mol.

On to CTGATCACGTGTTTGG, for which the “relative binding free energy” value amounted to 0.06 kcal/mol.

With TGAGGCACGTGTGGCA, the “relative binding free energy” value is -0.08 kcal/mol.

For the sequence AATTTCACGTGATAGA, the “relative binding free energy” value was 0.3 kcal/mol.

As for TGTCGCACGTGTCGGT, the “relative binding free energy” value was found to be 0.01 kcal/mol.

In the case of TGGCGCACGTGAGTTA, the “relative binding free energy” value turned out to be 0.22 kcal/mol.

Consider TAGATCACGTGGGATT, for which the “relative binding free energy” value was determined as 0.21 kcal/mol.

With GTTTACACGTGGTAAC, the “relative binding free energy” value was 0.23 kcal/mol.

For the sequence TATGCCACGTGTGTTT, the “relative binding free energy” value is -0.15 kcal/mol.

As to GTATACACGTGGTAGG, the “relative binding free energy” value is -0.01 kcal/mol.

TCGGGCACGTGTTTTA: the “relative binding free energy” value was -0.05 kcal/mol.

For the sequence TCATTCACGTGAGGGT, the “relative binding free energy” value came out at 0.3 kcal/mol.

Turning to GGGAGCACGTGGAGAA, the “relative binding free energy” value amounted to 0.03 kcal/mol.

Take GGGGGCACGTGCTCAG: the “relative binding free energy” value is -0.2 kcal/mol.

Turning to TGAATCACGTGAAGAA, the “relative binding free energy” value was 0.51 kcal/mol.

As to GTGGTCACGTGTGACG, the “relative binding free energy” value was determined as 0.33 kcal/mol.

On to GTGGACACGTGTGCGA, for which the “relative binding free energy” value worked out at 0.04 kcal/mol.

TTTTACACGTGCAGTG: the “relative binding free energy” value worked out at 0.03 kcal/mol.

Consider TTGGCCACGTGTAAGA, for which the “relative binding free energy” value turned out to be 0.15 kcal/mol.

As for TTGGGCACGTGTTAAC, the “relative binding free energy” value came to 0 kcal/mol.

As for TTCAACACGTGATGTT, the “relative binding free energy” value worked out at 0.14 kcal/mol.

As to GTTGGCACGTGATTGG, the “relative binding free energy” value is 0.12 kcal/mol.

Take TGCGTCACGTGTAGGT: the “relative binding free energy” value is -0.14 kcal/mol.

Consider GTTGGCACGTGCGCAG, for which the “relative binding free energy” value was -0.15 kcal/mol.

Consider GTGTACACGTGTCGGG, for which the “relative binding free energy” value was determined as 0.1 kcal/mol.

Consider TTTAACACGTGGGCAG, for which the “relative binding free energy” value was -0.11 kcal/mol.

Regarding CGTTGCACGTGCGGAG, the “relative binding free energy” value stood at 0.06 kcal/mol.

On to GGTGGCACGTGGTTCA, for which the “relative binding free energy” value was -0.15 kcal/mol.

Take TCAGTCACGTGAGGAT: the “relative binding free energy” value worked out at 0.32 kcal/mol.

Regarding GTTGCCACGTGGGCAG, the “relative binding free energy” value is -0.14 kcal/mol.

GGGGTCACGTGCGGGA: the “relative binding free energy” value was found to be 0 kcal/mol.

Turning to CGAAGCACGTGAGTTG, the “relative binding free energy” value was 0.13 kcal/mol.

For GAATTCACGTGGGTCG, the “relative binding free energy” value came to 0.29 kcal/mol.

For the sequence AAGGCCACGTGTGGAT, the “relative binding free energy” value worked out at 0.02 kcal/mol.

Consider CGGAACACGTGGGGGT, for which the “relative binding free energy” value was -0.11 kcal/mol.

As to TTGTTCACGTGATGTA, the “relative binding free energy” value is 0.19 kcal/mol.

Take TGTATCACGTGGCGCA: the “relative binding free energy” value was 0 kcal/mol.

GGTGCCACGTGGAGTA: the “relative binding free energy” value was -0.01 kcal/mol.

Consider CGTGACACGTGTAAGT, for which the “relative binding free energy” value stood at 0.11 kcal/mol.

On to GTAGTCACGTGTTAAA, for which the “relative binding free energy” value was determined as 0.25 kcal/mol.

On to TGCAGCACGTGGCGGA, for which the “relative binding free energy” value was -0.17 kcal/mol.

Take TTATGCACGTGCTTTA: the “relative binding free energy” value is -0.15 kcal/mol.

Consider AATTTCACGTGATTGA, for which the “relative binding free energy” value stood at 0.3 kcal/mol.

On to TGGTCCACGTGGGGTC, for which the “relative binding free energy” value is -0.16 kcal/mol.

On to GGGGTCACGTGATCAG, for which the “relative binding free energy” value turned out to be 0.16 kcal/mol.

Turning to ATATCCACGTGTTATG, the “relative binding free energy” value worked out at 0.03 kcal/mol.

On to ATGCACACGTGGGAGG, for which the “relative binding free energy” value is 0.04 kcal/mol.
